PubChem BioAssay AID2546 (National Center for Advancing Translational Sciences (NCATS), 2010)
Among all 310,000 compounds or so, about 11,000 (3.5%) were called active. Inconclusive means that the source gave no clear call. Such entries were picked first, then a sample of the others. The call rests on the fitted dose curve; in most records, active means well fitted inhibition curve with a large enough effect; inconclusive means small, poorly fitted or top-dose-only effect, or effect the other way; inactive means flat fitted curve, though single readings scatter. Potencies of inconclusive entries are left out as doubtful fits.

Test: VP16 counterscreen qHTS for inhibitors of ROR gamma transcriptional activity;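 further: Gal4-VP16 expression switched on by copper sulfate through the metallothionein promoter; nearly all actives have a fitted effect of over 50% in size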
Details: Drosophila S2 Gal4-VP16 UAS-luciferase, luminescence, 20 h; series mostly up to 53.6 µM
Potency means the concentration at half of the fitted maximal effect; tags describe the fitted curve by direction and shape.

Q: Which Potency does the source give for `Cn1c(=O)c2c(ncn2CCCc2ccccc2)n(C)c1=O` here?
A: inactive

Q: For `CCOC(=O)NC1Cc2ccccc2C1Sc1ccccn1` (stereo unspecified), which Potency is on record?
A: inactive

Q: For `COc1ccc(C(=O)CCN2CCCC(C)C2)cc1` (stereo unspecified), which Potency is on record?
A: inconclusive [inhibitor, single point]

Q: Which Potency does the source give for `c1ccc(CNc2nc(-c3cccnc3)cs2)cc1` here?
A: inconclusive [activator, partial curve, poor fit]

Q: For `Oc1ccc(N=Nc2ccc3c(c2)OCO3)c2ccccc12`, which Potency is on record?
A: active: 0.631 µM

Q: For `CC1=CC(C)(C)NC(=S)N1C(C)c1ccccc1` (stereo unspecified), which Potency is on record?
A: active: 3.98 µM

Q: With `O=C(COC(=O)/C=C/c1cccs1)Nc1nc(-c2ccccc2)cs1` as the compound, how does the Potency read?
A: inconclusive [inhibitor, single point]

Q: Which Potency does the source give for `Cc1ccnc(NC(=O)c2ccc([N+](=O)[O-])s2)c1` here?
A: inconclusive [inhibitor, single point]

Q: Which Potency does the source give for `COc1ccc(NC(=O)C(=O)Nc2cccc3cccnc23)c(OC)c1` here?
A: active: 2.51 µM

Q: For `CCCCCC/C(C)=C1/SC(=S)NC1=O`, which Potency is on record?
A: inactive

Q: Which Potency does the source give for `COc1ccc(/C=N/NC(=S)Nc2ccccc2)cc1COc1ccc(F)cc1` here?
A: active: 0.891 µM

Q: With `COc1ccc(CC(=O)OCC(=O)NCc2ccccc2Cl)cc1OC` as the compound, how does the Potency read?
A: inactive

Q: For `Cc1ccc(S(=O)(=O)Nc2nc3ccccc3nc2NCC2CCCO2)cc1` (stereo unspecified), which Potency is on record?
A: inconclusive [activator, full curve, poor fit]

Q: For `COc1ccc(C(=O)CCS(=O)(=O)c2ccc(C)cc2)cc1`, which Potency is on record?
A: active: 10 µM

Q: For `Cc1ccc(C(=O)N/N=C/c2ccc(-c3ccccc3[N+](=O)[O-])o2)cn1`, which Potency is on record?
A: inactive

Q: For `COc1ccc(CC(=O)NC(=S)Nc2ccc(S(N)(=O)=O)cc2)cc1`, which Potency is on record?
A: inconclusive [activator, single point]

Q: Which Potency does the source give for `Cc1ccc(C(=O)NC(=S)N2CCN(c3ccccc3F)CC2)cc1` here?
A: active: 2.82 µM

Q: For `CC(C)(C)NC(=O)C(=O)NNC(=O)c1cccc(Br)c1`, which Potency is on record?
A: inconclusive [inhibitor, partial curve, poor fit]

Q: With `COc1ccc(/C=N/Nc2ccc(C(=O)O)cc2)cc1OC` as the compound, how does the Potency read?
A: active: 0.447 µM

Q: With `CCC(=O)N1CCN(c2ccc(Cl)cc2NC(=O)c2ccc3c(c2)OCCO3)CC1` as the compound, how does the Potency read?
A: inactive

Q: Which Potency does the source give for `N#CC1=C(SCC(=O)NC23CC4CC(CC(C4)C2)C3)NC(=O)C(C#N)C12CCCCC2` (stereo unspecified) here?
A: active: 15.8 µM

Q: For `CCN(CC(=O)Nc1ccc(C(=O)Nc2ccc(OC)cc2)cc1)Cc1nc2ccccc2c(=O)[nH]1`, which Potency is on record?
A: inconclusive [inhibitor, single point]

Q: For `COc1ccc(NC(=S)N/N=C/c2cccn2Cc2ccccc2F)cc1`, which Potency is on record?
A: active: 1.41 µM

Q: For `Oc1ccc(Cl)cc1C1=NNC(c2cccs2)C1` (stereo unspecified), which Potency is on record?
A: inconclusive [inhibitor, single point]

Q: Which Potency does the source give for `Cc1ccc2nc(-c3ccc(NC(=O)CCN4C(=O)c5ccccc5C4=O)cc3)sc2c1` here?
A: active: 7.08 µM

Q: Which Potency does the source give for `COc1ccc(Br)cc1/C=N/Nc1cccc(C(=O)O)c1` here?
A: inconclusive [activator, partial curve]

Q: For `Cc1oc(-c2ccc(-c3ccccc3)cc2)nc1CN(C)C1CCOC1` (stereo unspecified), which Potency is on record?
A: inconclusive [activator, single point]

Q: For `CCC(C)c1ccc(N(C(=O)c2ccco2)C(C(=O)NC2CCCC2)c2cccnc2)cc1` (stereo unspecified), which Potency is on record?
A: inconclusive [activator, single point]

Q: With `O=C(NNS(=O)(=O)c1ccc(F)cc1)c1cnn(-c2ccccc2)c1C(F)(F)F` as the compound, how does the Potency read?
A: active: 12.6 µM

Q: Which Potency does the source give for `Cc1ccc(S(=O)(=O)Nc2ccc(S(=O)(=O)Nc3nccs3)cc2)c([N+](=O)[O-])c1` here?
A: inconclusive [inhibitor, single point]

Q: With `CCCCSc1nnc(-c2ccc(C)cc2)c2ccccc12` as the compound, how does the Potency read?
A: inconclusive [inhibitor, single point]

Q: With `N#Cc1ccc(C(=O)Nc2nnc(-c3ccco3)o2)cc1` as the compound, how does the Potency read?
A: active: 3.16 µM

Q: With `Cc1ccnc(OC(C(=O)O)C(OCc2ccccc2)(c2ccccc2)c2ccc(C(F)(F)F)cc2)n1` (stereo unspecified) as the compound, how does the Potency read?
A: inactive

Q: With `C=CCn1c(C)nnc1SCC(=O)c1[nH]c(C)c(C(C)=O)c1C` as the compound, how does the Potency read?
A: inactive

Q: Which Potency does the source give for `O=C(NNc1nc2cc3c(cc2s1)OCCO3)c1ccc(F)cc1` here?
A: inconclusive [inhibitor, partial curve, poor fit]

Q: With `CC(NC(=O)CCC(=O)N1CCN(S(=O)(=O)c2ccc(Cl)cc2)CC1)c1ccccc1` (stereo unspecified) as the compound, how does the Potency read?
A: inconclusive [inhibitor, single point]

Q: With `O=C(CN1C(=O)c2cccnc2Oc2ccc(Cl)cc21)NCCC1=CCCCC1` as the compound, how does the Potency read?
A: inactive

Q: For `Cc1cc(C)cc(OCC(=O)N(Cc2ccc(N(C)C)cc2)C2CCS(=O)(=O)C2)c1` (stereo unspecified), which Potency is on record?
A: inactive

Q: With `Cc1ccc2nc(NC(=S)NC(=O)c3cccs3)sc2c1` as the compound, how does the Potency read?
A: active: 3.16 µM

Q: With `Cc1cc(-n2c(C)cc(C(=O)CSc3nc(N)cc(=O)[nH]3)c2C)no1` as the compound, how does the Potency read?
A: active: 22.4 µM

Q: With `CCOC(=O)c1c(C)c(C(=O)N2CCN(c3ccc(F)cc3)CC2)c(C)n1C` as the compound, how does the Potency read?
A: inactive

Q: Which Potency does the source give for `Cc1ccccc1NC(=S)c1ccc2ccccc2n1` here?
A: active: 6.31 µM

Q: With `Cc1ccc(N=Nc2ccc(O)c(/C=N\NC(=O)c3ccc(N)cc3)c2)cc1C` as the compound, how does the Potency read?
A: active: 2.24 µM

Q: For `CCNC(=S)N(CCc1c(C)[nH]c2ccc(Cl)cc12)Cc1ccco1`, which Potency is on record?
A: inconclusive [inhibitor, single point]

Q: With `Cc1ccc(NC(=O)c2cc(N3C(=O)C=CC3=O)ccc2N2CCOCC2)cc1` as the compound, how does the Potency read?
A: active: 7.94 µM

Q: Which Potency does the source give for `O=C(NC1CC1)C1CCCN(C(=O)Nc2ccc(F)cc2)C1` (stereo unspecified) here?
A: inconclusive [activator, single point]

Q: Which Potency does the source give for `Nc1nonc1-n1nnc(C(=O)N/N=C/c2ccoc2)c1-c1ccccc1` here?
A: inconclusive [inhibitor, single point]

Q: Which Potency does the source give for `O=S(=O)(NCCC1=CCCCC1)c1cccc(S(=O)(=O)N2CCOCC2)c1` here?
A: inconclusive [inhibitor, single point]

Q: With `CC(=O)OCCCNc1cc(SCc2ccco2)c2nonc2c1[N+](=O)[O-]` as the compound, how does the Potency read?
A: inconclusive [inhibitor, single point]

Q: With `Cc1cccc(N2C(=O)C(Cc3ccccc3)NC2=S)c1` (stereo unspecified) as the compound, how does the Potency read?
A: inconclusive [inhibitor, single point]

Q: Which Potency does the source give for `CC(=O)c1cc(NC(=O)c2ccccc2)c(=O)oc1C` here?
A: active: 2.51 µM

Q: For `CCn1c(CNc2ccc(OC)cc2)nnc1SCC(=O)c1ccc(OC)cc1`, which Potency is on record?
A: inconclusive [inhibitor, single point]

Q: Which Potency does the source give for `C/C(=N\NC(=S)NCc1ccccc1)c1ccco1` here?
A: active: 7.08 µM

Q: Which Potency does the source give for `O=C(OCn1ncc(Cl)c(Cl)c1=O)c1ccc(C(F)(F)F)cc1` here?
A: active: 7.08 µM

Q: With `COc1cnc(SCc2ccc(Cl)c(Cl)c2)nc1Cl` as the compound, how does the Potency read?
A: inconclusive [inhibitor, single point]

Q: With `CCOc1ccc(NC(=O)N(CCC(C)C)C(C)c2ccco2)cc1` (stereo unspecified) as the compound, how does the Potency read?
A: inconclusive [inhibitor, partial curve]

Q: With `COc1ccc(C(=O)NC(=S)Nc2ccc(N3CCOCC3)cc2)cc1Cl` as the compound, how does the Potency read?
A: active: 7.94 µM

Q: Which Potency does the source give for `CCNC(=S)NN=C1c2ccccc2-c2ccccc21` here?
A: active: 3.16 µM

Q: With `CCOc1ccc(CNC(=O)Cn2ccc3cc(S(=O)(=O)N4CCCCCC4)ccc32)cc1` as the compound, how does the Potency read?
A: inconclusive [inhibitor, single point]

Q: Which Potency does the source give for `CCc1ccc(NC(=O)c2ccc(NC(=O)C3CCCO3)cc2)cc1` (stereo unspecified) here?
A: inconclusive [inhibitor, full curve]

Q: Which Potency does the source give for `Cc1cc(C)c2nc(SCC(=O)Nc3ccc(S(=O)(=O)N4CCCC4)cc3)c(C)cc2c1` here?
A: inconclusive [inhibitor, single point]

Q: With `Cc1cc(C)c2nc(N3CCC(C(=O)NCCCN4CCCCC4)CC3)sc2c1` as the compound, how does the Potency read?
A: inactive

Q: Which Potency does the source give for `COc1ccccc1C1=NC(c2ccc(F)cc2)N=C1C` (stereo unspecified) here?
A: inactive

Q: For `Cc1cccc(-n2ncc3c(N4CCCC4)ncnc32)c1`, which Potency is on record?
A: inconclusive [inhibitor, partial curve]

Q: Which Potency does the source give for `O=C(/C=C/c1ccc(Cl)cc1)N1CCN(c2c(Cl)cccc2[N+](=O)[O-])CC1` here?
A: inconclusive [inhibitor, single point]

Q: With `CCOc1ccc(C(=O)NC(=S)Nc2ccc(N3CCCCC3)cc2)cc1[N+](=O)[O-]` as the compound, how does the Potency read?
A: active: 3.98 µM

Q: For `CC1=CC2=NC(=O)/C(=C\c3cccn3CCOc3ccc(C)c(C)c3)C(=N)N2O1`, which Potency is on record?
A: inconclusive [inhibitor, single point]

Q: For `Cc1ccc(C2CC(c3cccs3)=NN2C(=O)CCl)cc1` (stereo unspecified), which Potency is on record?
A: inconclusive [inhibitor, single point]

Q: For `CC(C)N(C(=O)C[n+]1ccc(/C=N/O)cc1)C(C)C`, which Potency is on record?
A: inconclusive [activator, single point]

Q: For `Clc1ccc(CONc2ncnc3nonc23)c(Cl)c1`, which Potency is on record?
A: inconclusive [inhibitor, single point]

Q: Which Potency does the source give for `CC(C)c1ccc(C2C3CSCC=C3C(C#N)=C(N)C2(C#N)C#N)cc1` (stereo unspecified) here?
A: inactive

Q: Which Potency does the source give for `CC(C)c1ccc(NC(=O)NN2CCOCC2)cc1` here?
A: inconclusive [inhibitor, single point]

Q: For `COc1cccc(Nc2ncc3nc(-c4cccs4)c(=O)n(C[C@H]4CCCO4)c3n2)c1`, which Potency is on record?
A: inactive

Q: Which Potency does the source give for `CN1CCN(c2ncc3nc(-c4ccc(Cl)cc4)c(=O)n(C4CC4)c3n2)CC1` here?
A: inactive

Q: For `COc1cc(NC(=O)c2cc3c(C)nc4ccccc4c3o2)cc(OC)c1OC`, which Potency is on record?
A: inactive

Q: Which Potency does the source give for `Fc1ccc(-n2nnnc2-c2cnc(-c3cccs3)nc2C(F)(F)F)cc1` here?
A: inconclusive [inhibitor, single point]
